From the supplement of paper PMC8728848
The other results are listed elsewhere or left out.

Columns and labels:
Assay in all cases: glycan array binding signal (z-score within array); higher = stronger binding
Settings in all cases: glycan notation: IUPAC condensed, linker removed
[1] = target: Fuc(a1-3)[Gal(b1-4)]GlcNAc(b1-3)Gal(b1-4)[Fuc(a1-3)]GlcNAc
How it was run: (§1)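 The binding signal is a Z-score computed within each array. Data were drawn from 3228 arrays in the Consortium for Functional Glycomics database, restricted to those with a known protein sequence. Scores were averaged over arrays of the same protein sequence at different concentrations or buffers, and over linkers, and negative values can be taken as non-binding.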

[2] = target: Fuc(a1-3)[Gal(b1-4)]GlcNAc(b1-3)Gal(b1-4)[Fuc(a1-3)]GlcNAc(b1-3)Gal(b1-4)[Fuc(a1-3)]GlcNAc
How it was run: as §1

[3] = target: Fuc(a1-3)[Gal(b1-4)]GlcNAc(b1-3)GalNAc
How it was run: as §1

[4] = target: Fuc(a1-3)[Gal(b1-4)]GlcNAc(b1-6)GalNAc
How it was run: as §1

[5] = target: Fuc(a1-3)[Gal(b1-4)]GlcNAc(b1-6)[Gal(b1-3)GlcNAc(b1-3)]Gal(b1-4)Glc
How it was run: as §1

[6] = target: Fuc(a1-3)[Gal(b1-4)]GlcNAc6S
How it was run: as §1

[7] = target: Fuc(a1-3)[Gal3S(b1-4)]Glc
How it was run: as §1

[8] = target: Fuc(a1-3)[Gal3S(b1-4)]GlcNAc
How it was run: as §1

[9] = target: Fuc(a1-3)[Gal3S(b1-4)]GlcNAc6S
How it was run: as §1

[10] = target: Fuc(a1-3)[GalNAc(b1-4)]GlcNAc
How it was run: as §1

[11] = target: Fuc(a1-3)[GalNAc(b1-4)]GlcNAc6S
How it was run: as §1

Fuc(a1-4)GlcNAc = target: Fuc(a1-4)GlcNAc
How it was run: as §1

Fuc(b1-3)GlcNAc = target: Fuc(b1-3)GlcNAc
How it was run: as §1

Gal(a1-2)Gal = target: Gal(a1-2)Gal
How it was run: as §1

Gal(a1-3)Gal = target: Gal(a1-3)Gal
How it was run: as §1

Gal(a1-3)Gal(b1-3)GlcNAc = target: Gal(a1-3)Gal(b1-3)GlcNAc
How it was run: as §1

[12] = target: Gal(a1-3)Gal(b1-3)GlcNAc(b1-2)Man
How it was run: as §1

[13] = target: Gal(a1-3)Gal(b1-3)GlcNAc(b1-2)Man(a1-3)[Gal(a1-3)Gal(b1-3)GlcNAc(b1-2)Man(a1-6)]Man(b1-4)GlcNAc(b1-4)GlcNAc
How it was run: as §1

[14] = target: Gal(a1-3)Gal(b1-3)GlcNAc(b1-3)GalNAc
How it was run: as §1

[15] = target: Gal(a1-3)Gal(b1-3)GlcNAc(b1-6)GalNAc
How it was run: as §1

[16] = target: Gal(a1-3)Gal(b1-3)[Fuc(a1-4)]GlcNAc(b1-2)Man(a1-3)[Gal(a1-3)Gal(b1-3)[Fuc(a1-4)]GlcNAc(b1-2)Man(a1-6)]Man(b1-4)GlcNAc(b1-4)GlcNAc
How it was run: as §1

Gal(a1-3)Gal(b1-4)Glc = target: Gal(a1-3)Gal(b1-4)Glc
How it was run: as §1

Gal(a1-3)Gal(b1-4)GlcNAc = target: Gal(a1-3)Gal(b1-4)GlcNAc
How it was run: as §1

[17] = target: Gal(a1-3)Gal(b1-4)GlcNAc(b1-2)Man
How it was run: as §1

[18] = target: Gal(a1-3)Gal(b1-4)GlcNAc(b1-2)Man(a1-3)[Gal(a1-3)Gal(b1-4)GlcNAc(b1-2)Man(a1-6)]Man(b1-4)GlcNAc(b1-4)GlcNAc
How it was run: as §1

[19] = target: Gal(a1-3)Gal(b1-4)GlcNAc(b1-3)GalNAc
How it was run: as §1

[20] = target: Gal(a1-3)Gal(b1-4)GlcNAc(b1-6)GalNAc
How it was run: as §1

[21] = target: Gal(a1-3)Gal(b1-4)[Fuc(a1-3)]GlcNAc
How it was run: as §1

[22] = target: Gal(a1-3)Gal(b1-4)[Fuc(a1-3)]GlcNAc(b1-2)Man(a1-3)[Gal(a1-3)Gal(b1-4)[Fuc(a1-3)]GlcNAc(b1-2)Man(a1-6)]Man(b1-4)GlcNAc(b1-4)GlcNAc
How it was run: as §1

Gal(a1-3)GalNAc = target: Gal(a1-3)GalNAc
How it was run: as §1

[23] = target: Gal(a1-3)[Gal(a1-4)]Gal(b1-4)GlcNAc
How it was run: as §1

[24] = target: Gal(a1-4)Gal(b1-3)GlcNAc(b1-2)Man(a1-3)[Gal(a1-4)Gal(b1-3)GlcNAc(b1-2)Man(a1-6)]Man(b1-4)GlcNAc(b1-4)GlcNAc
How it was run: as §1

Gal(a1-4)Gal(b1-4)Glc = target: Gal(a1-4)Gal(b1-4)Glc
How it was run: as §1

Gal(a1-4)Gal(b1-4)GlcNAc = target: Gal(a1-4)Gal(b1-4)GlcNAc
How it was run: as §1

[25] = target: Gal(a1-4)Gal(b1-4)GlcNAc(b1-2)Man(a1-3)[Gal(a1-4)Gal(b1-4)GlcNAc(b1-2)Man(a1-6)]Man(b1-4)GlcNAc(b1-4)GlcNAc
How it was run: as §1

[26] = target: Gal(a1-4)Gal(b1-4)GlcNAc(b1-3)Gal(b1-4)Glc
How it was run: as §1

Gal(a1-4)GlcNAc = target: Gal(a1-4)GlcNAc
How it was run: as §1

Gal(a1-6)Glc = target: Gal(a1-6)Glc
How it was run: as §1

B1: GS13686A-pdi-553-26-553 (Parabacteroides distasonis) (protein)
chain: NENPDKPTDDVNYNMNEPRLASTLRGGLIIEGNVEQRLKPLQIDFYSQMTVDGGGWGTKNYIQDDEWNNLVWEEYLKQIASINIVIRSLTEKDKDAYANTIAFARIWRVYVHTLAADKFGPMPFPAYEIVEANPPYKSLKDIYDEYFRELDAAINGFNDSAQPIFSDAGIDLIYKNDVSKWKRFANSLRLRLAVRLTEVDQEKCIAEANAAISSPAGLISDKADNAYMPPKADGSWGQDYNYTMFQITWSGPICMSKSVEKLVTNIGGVAWPQGVVNQTSGVAVSSVHPEKVDPRAPKIFQPGIENGDWKGLVYGPKAEEANTGIYQSKQCAELGFIIKDGYPYKSRPYDLFLSEEVHFLKAELYARGFIAGDAKSEYEAGVRASFATWGVTSEVDDYLTSTEKNEAGTSARYDDQQGAGNTALEKIITQKYIAGIPDLAQEGWNDKRRLNLPRLDVAVYRDQAVYNNNDKDILKSANFIKRMRYPTKESLINATEYEKGKSMLGGKGDIVSTPLWWDKNSNYCTSSK
[1]
  glycan array binding signal (z-score): -0.175
[2]
  glycan array binding signal (z-score): -0.035
[3]
  glycan array binding signal (z-score): -0.168
[4]
  glycan array binding signal (z-score): -0.24
[5]
  glycan array binding signal (z-score): 0.916
[6]
  glycan array binding signal (z-score): -0.276
[7]
  glycan array binding signal (z-score): -0.395
[8]
  glycan array binding signal (z-score): 0.145
[9]
  glycan array binding signal (z-score): -0.136
[10]
  glycan array binding signal (z-score): -0.172
[11]
  glycan array binding signal (z-score): 0.197
Fuc(a1-4)GlcNAc
  glycan array binding signal (z-score): 0.245
Fuc(b1-3)GlcNAc
  glycan array binding signal (z-score): -0.354
Gal(a1-2)Gal
  glycan array binding signal (z-score): 0.062
Gal(a1-3)Gal
  glycan array binding signal (z-score): -0.257
Gal(a1-3)Gal(b1-3)GlcNAc
  glycan array binding signal (z-score): -0.119
[12]
  glycan array binding signal (z-score): 0.156
[13]
  glycan array binding signal (z-score): 0.2
[14]
  glycan array binding signal (z-score): -0.053
[15]
  glycan array binding signal (z-score): -0.218
[16]
  glycan array binding signal (z-score): 0.102
Gal(a1-3)Gal(b1-4)Glc
  glycan array binding signal (z-score): -0.06
Gal(a1-3)Gal(b1-4)GlcNAc
  glycan array binding signal (z-score): -0.128
[17]
  glycan array binding signal (z-score): -0.324
[18]
  glycan array binding signal (z-score): -0.004
[19]
  glycan array binding signal (z-score): -0.168
[20]
  glycan array binding signal (z-score): -0.447
[21]
  glycan array binding signal (z-score): 0.829
[22]
  glycan array binding signal (z-score): 0.196
Gal(a1-3)GalNAc
  glycan array binding signal (z-score): -0.14
[23]
  glycan array binding signal (z-score): -0.185
[24]
  glycan array binding signal (z-score): 0.371
Gal(a1-4)Gal(b1-4)Glc
  glycan array binding signal (z-score): -0.1
Gal(a1-4)Gal(b1-4)GlcNAc
  glycan array binding signal (z-score): -0.048
[25]
  glycan array binding signal (z-score): -0.062
[26]
  glycan array binding signal (z-score): -0.28
Gal(a1-4)GlcNAc
  glycan array binding signal (z-score): 0.048
Gal(a1-6)Glc
  glycan array binding signal (z-score): 0.108
